# Laboratory results as given in article PMC5892938.
# The other results are listed elsewhere or left out. At the low end of the ranking, values are background and their order means little.
# Molecular target: GST-SBP-SLBP (stem-loop binding protein) (UniProt Q14493)
# Assay: targeted RNA Bind-n-Seq;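 also: DESeq read counts versus GST-SBP nonspecific binding control pulldown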
# Details: RBNS binding buffer: 25 mM Tris pH 7.5, 150 mM KCl, 3 mM MgCl2, 0.1% Tween, 0.5 mg/mL BSA, 1 mM DTT; 27 nM protein, 750 pM RNA pool; temperature not stated; high values mean tight binding
row,Sequence,binding signal (log2 fold change)
1,GGUCACGUCUCAAUCAACUCUUCCUCCAGGGAAACCCCUGGCAAUUUCAACAGCUCGCAGUCAAG,0.161
2,GGUCACGUCUCAAUCAACUCAUCCCCCAGGGAAACCCCUGGCUUAUUCAACAGCUCGCAGUCAAG,0.00126
3,GGUCACGUCUCAAUCAACUCUAUGUCAGGAGUUUACUCCUGUUAAUUCAACAGCUCGCAGUCAAG,0.0399
4,GGUCACGUCUCAAUCAACUCAUUCCCCAGGGAAAGCCCUGGCUAAUUCAACAGCUCGCAGUCAAG,-0.318
5,GGUCACGUCUCAAUCAACUCCAUCGAGGGGGGGAAAACCCCUUUACCCUCUAAAUCAACAGCUCGCAGUCAAG,-0.927
6,GGUCACGUCUCAAUCAACUCUAUUUCCAGGGAAAACCCUGGUAUACUCAACAGCUCGCAGUCAAG,0.197
7,GGUCACGUCUCAAUCAACUCUAUCCCAGGAGUUUACUCCUGUAUUUUCAACAGCUCGCAGUCAAG,-0.144
8,GGUCACGUCUCAAUCAACUCAAUAGAGGGGGGGAAAACCCCUUUACCCUCACACUCAACAGCUCGCAGUCAAG,-0.278
9,GGUCACGUCUCAAUCAACUCUUUUUCCAGGGAAAGCCCUGGUAAUCUCAACAGCUCGCAGUCAAG,-0.0749
10,GGUCACGUCUCAAUCAACUCAUAGGAGGGGGGGAAAACCCCUUUACCCUCAACUUCAACAGCUCGCAGUCAAG,0.451
11,GGUCACGUCUCAAUCAACUCUUCUCCAGGAGUUUUCUCCUGCAAACUCAACAGCUCGCAGUCAAG,0.154
12,GGUCACGUCUCAAUCAACUCUAUUCCCAGGGAAAACCCUGGUUAACUCAACAGCUCGCAGUCAAG,0.153
13,GGUCACGUCUCAAUCAACUCUUCCUCAGGAGUUUACUCCUGCUUUCUCAACAGCUCGCAGUCAAG,0.0936
14,GGUCACGUCUCAAUCAACUCCAUAGAGGGGGGGAAAACCCCUUUACCCUCCAUUUCAACAGCUCGCAGUCAAG,-0.0593
15,GGUCACGUCUCAAUCAACUCAAAAGAGGGGGGGAAAACCCCUUUGCCCUCGUAUUCAACAGCUCGCAGUCAAG,-0.0764
16,GGUCACGUCUCAAUCAACUCCAUCGAGGGGGGGAAAACCCCUUUACCCUCACAAUCAACAGCUCGCAGUCAAG,-0.0376
17,GGUCACGUCUCAAUCAACUCUCUAGAGGGGGGGAAAACCCCUUUACCCUCAUCUUCAACAGCUCGCAGUCAAG,-0.0105
18,GGUCACGUCUCAAUCAACUCAGUUCCCAGGGAAACCCCUGGCAUAUUCAACAGCUCGCAGUCAAG,-0.164
19,GGUCACGUCUCAAUCAACUCAACAGAGGGGGGGAAAACCCCUUUACCCUCACACUCAACAGCUCGCAGUCAAG,-0.0691

row,Sequence,binding signal (log2 fold change)
1,GGUCACGUCUCAAUCAACUCAUUCGCAGGAGUUUCCUCCUGGUAUUUCAACAGCUCGCAGUCAAG,-0.00859
2,GGUCACGUCUCAAUCAACUCAAUUCCCAGGGAAACCCCUGGUUUACUCAACAGCUCGCAGUCAAG,0.184
3,GGUCACGUCUCAAUCAACUCAGUCUCAGGAGUUUCCUCCUGCAUAUUCAACAGCUCGCAGUCAAG,-0.108
4,GGUCACGUCUCAAUCAACUCCCUAGAGGGGGGGAAAACCCCUUUACCCUCGUCCUCAACAGCUCGCAGUCAAG,-0.186
5,GGUCACGUCUCAAUCAACUCAUAAGAGGGGGGGAAAACCCCUUUGCCCUCACCGUCAACAGCUCGCAGUCAAG,0.0521
6,GGUCACGUCUCAAUCAACUCUUCCUCCAGGGAAAACCCUGGCUAAUUCAACAGCUCGCAGUCAAG,-0.238
7,GGUCACGUCUCAAUCAACUCAUCCCCCAGGGAAAGCCCUGGUAAUCUCAACAGCUCGCAGUCAAG,-0.0013
8,GGUCACGUCUCAAUCAACUCUUCCCCAGGAGUUUACUCCUGUAUUUUCAACAGCUCGCAGUCAAG,0.137
9,GGUCACGUCUCAAUCAACUCUUUUUCCAGGGAAAUCCCUGGUUUUUUCAACAGCUCGCAGUCAAG,-0.223
10,GGUCACGUCUCAAUCAACUCUUCUUCAGGAGUUUACUCCUGUUUAUUCAACAGCUCGCAGUCAAG,0.114
11,GGUCACGUCUCAAUCAACUCCACAGAGGGGGGGAAAACCCCUUUACCCUCACAAUCAACAGCUCGCAGUCAAG,-0.386
12,GGUCACGUCUCAAUCAACUCAACUUCCAGGGAAAACCCUGGUAAUUUCAACAGCUCGCAGUCAAG,-0.208
13,GGUCACGUCUCAAUCAACUCAGUUUCAGGAGUUUACUCCUGUUUAUUCAACAGCUCGCAGUCAAG,-0.0883
14,GGUCACGUCUCAAUCAACUCUCUAGAGGGGGGGAAAACCCCUUUGCCCUCAAUAUCAACAGCUCGCAGUCAAG,-0.438
15,GGUCACGUCUCAAUCAACUCUUCUUCAGGAGUUUUCUCCUGCUUUGUCAACAGCUCGCAGUCAAG,-0.23
16,GGUCACGUCUCAAUCAACUCUACUCCCAGGGAAAGCCCUGGUAUAUUCAACAGCUCGCAGUCAAG,0.0485
17,GGUCACGUCUCAAUCAACUCAUCUCCCAGGGAAAGCCCUGGUUUACUCAACAGCUCGCAGUCAAG,0.0465
18,GGUCACGUCUCAAUCAACUCAUCGGCCAGGGAAAACCCUGGGAAAUUCAACAGCUCGCAGUCAAG,-0.474
